According to the supplement of paper PMC12217912:
The list shows a part of the results. The full chains were built here from the parent and the listed change. Values near 0.05 are background.

B1: TEV protease; numbered along this chain (parent)
chain: MGESLFKGPRDYNPISSSICHLTNESDGHTTSLYGIGFGPFIITNKHLFRRNNGTLVVQSLHGVFKVKDTTTLQQHLVDGRDMIIIRMPKDFPPFPQKLKFREPQREERICLVTTNFQTKSMSSMVSDTSCTFPSGDGIFWKHWIQTKDGQCGSPLVSTRDGFIVGIHSASNFTNTNNYFTSVPKNFMELLTNQEAQQWVSGWRLNADSVLWGGHKVFMVKPEEPFQPVKEATQL

Variants of: B1
Assay: raw area under fraction-flipped curve 0-4 h after induction (AUC4h, not background-subtracted), DNA-recorder readout of cleavage of the substrate (dimensionless); higher = more cleavage of the substrate by the protease variant
Conditions: temperature: 34 °C; time window: 0-4 h after rhamnose induction
Procedure: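 In vivo DNA recorder in E. coli TOP10(DE3) ΔrhaA at 34 °C. Each TEVp single-site mutant (parent TEVp 0) is paired with a single-site variant of the 7-mer TEVs (canonical ENLYFQ|S). The substrate sits between flexible linkers in a Bxb1-sfGFP-TEVs-SsrA fusion, so cleavage stabilises Bxb1 and speeds flipping of a recombination array, read by NGS. The value is the raw area under the fraction-flipped curve over 0-4 h after rhamnose induction (AUC4h), with ≥20 reads per time point. It is not background-subtracted; inactive controls average about 0.047.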
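Note: Bxb1 expression induced with 0.2% (w/v) L-rhamnose at OD600 near 0.5, cultures sampled hourly, flipped fraction per protease–substrate barcode pair counted by paired-end Illumina sequencing.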

| Variant | area with substrate ENLYFQA | area with substrate ENLYFQC | area with substrate ENLYFQD | area with substrate ENLYFQE | area with substrate ENLYFQF | area with substrate ENLYFQG | area with substrate ENLYFQH | area with substrate ENLYFQI | area with substrate ENLYFQK | area with substrate ENLYFQL | area with substrate ENLYFQN | area with substrate ENLYFQQ | area with substrate ENLYFQR | area with substrate ENLYFQS | area with substrate ENLYFQT | area with substrate ENLYFQV | area with substrate ENLYFQY | area with substrate ENLYFQM | area with substrate ENLYFQP | area with substrate ENLYFQW |
| --- | --- | --- | --- | --- | --- | --- | --- | --- | --- | --- | --- | --- | --- | --- | --- | --- | --- | --- | --- | --- |
| S26C | 0.098 | 0.0865 | 0.0783 | 0.0709 | 0.0593 | 0.0874 | 0.0741 | 0.0628 | 0.0541 | 0.0545 | 0.063 | 0.067 | 0.0649 | 0.0903 | 0.0593 | 0.0643 | 0.0681 | – | – | – |
| S26F | 0.0519 | 0.0721 | 0.0746 | – | – | 0.0673 | 0.0551 | 0.062 | 0.0645 | 0.0521 | 0.0624 | 0.0513 | 0.0603 | 0.0774 | 0.0777 | 0.0724 | – | 0.0807 | 0.0568 | 0.0615 |
| D27A | 0.0846 | 0.103 | 0.0686 | – | 0.0776 | 0.0843 | 0.0753 | 0.0485 | 0.0561 | 0.0444 | 0.0695 | – | 0.0478 | 0.0937 | – | 0.0733 | 0.0741 | 0.0721 | – | 0.0554 |
| D27Q | 0.124 | 0.0512 | – | – | – | 0.0728 | – | 0.0641 | 0.058 | 0.0604 | 0.0754 | – | 0.0585 | 0.0955 | 0.0649 | – | 0.0775 | 0.0654 | – | 0.0559 |
| G28C | 0.0991 | 0.103 | – | – | – | – | 0.0568 | 0.0623 | 0.0631 | 0.0698 | 0.0474 | 0.0626 | 0.0654 | 0.0861 | 0.0624 | 0.0543 | 0.0708 | 0.0891 | 0.042 | 0.0627 |
| H29A | 0.0693 | 0.105 | 0.0693 | – | – | 0.098 | 0.116 | 0.0797 | 0.0624 | 0.0496 | 0.0712 | 0.0825 | 0.0532 | 0.105 | 0.0683 | 0.0263 | 0.0548 | 0.117 | 0.0659 | 0.061 |
| H29D | 0.106 | 0.0887 | 0.0639 | – | 0.0772 | 0.14 | – | 0.0522 | 0.0863 | 0.0522 | – | – | 0.0721 | 0.115 | 0.0642 | 0.0627 | – | 0.0801 | 0.057 | 0.0972 |
| H29E | 0.1 | 0.122 | 0.0738 | – | – | 0.0899 | – | 0.0555 | 0.0539 | 0.0615 | 0.0586 | 0.0677 | 0.0583 | 0.113 | 0.0628 | 0.0732 | – | 0.0836 | – | 0.0643 |
| H29L | 0.0917 | 0.11 | 0.0659 | 0.074 | 0.0861 | 0.106 | 0.0698 | 0.0562 | – | 0.0659 | – | – | 0.0593 | 0.115 | – | 0.0654 | 0.0761 | 0.13 | 0.0552 | – |
| T30W | 0.112 | – | – | 0.061 | 0.0788 | 0.0924 | – | 0.0615 | – | – | 0.0614 | – | – | 0.122 | 0.0627 | 0.0585 | 0.078 | 0.118 | 0.0832 | – |
| T31F | 0.0998 | 0.116 | 0.0679 | – | – | 0.089 | 0.0774 | 0.0614 | 0.0631 | 0.0761 | 0.0653 | 0.0663 | 0.0674 | 0.0986 | 0.0567 | 0.0788 | 0.0963 | 0.123 | 0.0467 | 0.0832 |
| S32H | 0.0791 | 0.111 | 0.0797 | – | 0.0556 | 0.0838 | 0.049 | 0.0608 | 0.0675 | 0.0625 | 0.0794 | 0.0607 | 0.0598 | 0.0963 | 0.0679 | 0.057 | 0.0687 | 0.0913 | 0.0546 | 0.058 |
| I36A | 0.0939 | 0.0838 | 0.0522 | – | 0.0497 | 0.0781 | – | 0.0427 | 0.0592 | 0.0599 | 0.0469 | 0.0821 | 0.0465 | 0.0722 | – | – | 0.0301 | 0.0637 | 0.0454 | 0.0773 |
| I36E | 0.0538 | 0.0509 | 0.0508 | – | – | 0.0455 | 0.0473 | 0.0589 | 0.0744 | 0.0391 | 0.0429 | 0.055 | 0.0511 | 0.0477 | 0.0482 | 0.0441 | 0.0403 | 0.0467 | 0.0385 | 0.0515 |
| I36R | 0.0395 | 0.0584 | – | – | 0.0581 | 0.0506 | 0.0369 | 0.0513 | 0.0576 | 0.0584 | 0.0564 | – | 0.0425 | 0.0481 | 0.0492 | 0.0447 | – | 0.0518 | – | 0.0506 |
| I36V | 0.0887 | 0.105 | 0.0999 | – | 0.0335 | 0.0898 | 0.0696 | 0.04 | – | – | 0.0824 | 0.0699 | 0.0507 | 0.0976 | 0.0722 | – | 0.0711 | 0.0838 | 0.0642 | 0.0665 |
| G37P | 0.0529 | 0.0843 | – | – | – | 0.0608 | – | 0.0456 | 0.0035 | 0.0298 | – | – | 0.0466 | 0.0574 | – | 0.0386 | 0.0348 | 0.0494 | – | – |
| F38P | 0.0298 | 0.0294 | – | – | 0.0501 | 0.0438 | 0.0573 | 0.0424 | 0.0413 | 0.0575 | 0.0379 | – | 0.041 | 0.0417 | 0.0374 | 0.0431 | 0.0368 | – | 0.0404 | 0.0431 |
| G39Q | 0.0356 | 0.0512 | – | – | 0.0172 | 0.0478 | 0.0499 | – | 0.0422 | 0.0493 | 0.0441 | 0.0388 | 0.0395 | 0.0447 | 0.0234 | 0.0678 | 0.0483 | 0.0351 | – | – |
| G39W | 0.0602 | 0.0533 | 0.0496 | – | 0.0331 | 0.0528 | 0.0529 | 0.0517 | 0.0489 | 0.0405 | 0.0424 | 0.053 | 0.0419 | 0.0478 | 0.0484 | 0.0346 | 0.0471 | 0.0323 | – | 0.0512 |
| F41W | 0.0974 | 0.0793 | 0.0492 | 0.0616 | 0.0642 | 0.0569 | 0.0523 | 0.0542 | 0.0666 | 0.0584 | 0.0508 | 0.0728 | 0.0723 | 0.0795 | 0.0606 | 0.0397 | 0.0636 | – | 0.0501 | 0.0714 |
| I42C | 0.0927 | 0.0947 | 0.0647 | – | – | 0.0857 | 0.0783 | 0.0519 | 0.0555 | 0.0568 | 0.0669 | – | 0.0511 | 0.0867 | 0.0618 | 0.0611 | 0.0682 | 0.0867 | 0.048 | 0.0419 |
